Hit rate of the full screen: of about 310,000 compounds, about 14,000 (4.5%) showed an effect of 50% or more. The effect is printed as a negative number. Some of the results follow.
Molecular target: human ether-à-go-go-related gene (hERG) potassium channel (human, UniProt Q12809)
Assay: primary screen, population patch clamp on CHO cells stably expressing hERG
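Further: peak tail current of the secondary pulse compared with the same well before compound.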

human ether-à-go-go-related gene (hERG) potassium channel, sequence (Q12809 whole entry, looked up): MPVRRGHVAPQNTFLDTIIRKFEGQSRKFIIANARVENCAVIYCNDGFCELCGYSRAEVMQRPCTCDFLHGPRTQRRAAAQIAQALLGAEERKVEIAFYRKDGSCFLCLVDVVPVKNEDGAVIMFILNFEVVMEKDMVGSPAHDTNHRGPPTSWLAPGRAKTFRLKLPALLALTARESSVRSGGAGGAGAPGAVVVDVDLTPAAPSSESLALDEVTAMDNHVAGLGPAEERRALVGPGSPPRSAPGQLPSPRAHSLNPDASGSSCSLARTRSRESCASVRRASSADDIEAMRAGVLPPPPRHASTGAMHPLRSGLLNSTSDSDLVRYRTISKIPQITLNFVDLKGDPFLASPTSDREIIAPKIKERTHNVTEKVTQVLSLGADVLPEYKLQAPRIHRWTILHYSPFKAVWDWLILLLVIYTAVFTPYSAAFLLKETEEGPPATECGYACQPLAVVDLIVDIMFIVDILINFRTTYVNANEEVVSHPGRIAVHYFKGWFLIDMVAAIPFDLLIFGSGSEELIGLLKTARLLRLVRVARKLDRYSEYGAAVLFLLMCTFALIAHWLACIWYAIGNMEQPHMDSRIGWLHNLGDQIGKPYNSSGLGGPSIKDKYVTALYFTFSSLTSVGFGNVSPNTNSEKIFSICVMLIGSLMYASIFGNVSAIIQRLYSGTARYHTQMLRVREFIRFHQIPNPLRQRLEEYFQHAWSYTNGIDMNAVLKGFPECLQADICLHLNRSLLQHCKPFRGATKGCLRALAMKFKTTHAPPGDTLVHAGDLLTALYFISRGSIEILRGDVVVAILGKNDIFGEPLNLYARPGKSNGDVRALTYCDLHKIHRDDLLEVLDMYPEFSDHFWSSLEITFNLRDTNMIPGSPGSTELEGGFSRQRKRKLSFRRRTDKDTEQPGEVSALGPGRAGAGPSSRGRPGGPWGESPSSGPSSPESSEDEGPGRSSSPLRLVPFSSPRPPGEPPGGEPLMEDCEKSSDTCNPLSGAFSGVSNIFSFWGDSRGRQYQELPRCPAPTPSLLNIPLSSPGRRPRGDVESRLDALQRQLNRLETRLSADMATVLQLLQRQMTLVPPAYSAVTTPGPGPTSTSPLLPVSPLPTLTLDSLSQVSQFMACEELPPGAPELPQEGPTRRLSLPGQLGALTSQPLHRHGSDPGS

| Structure (SMILES) | hERG current change (%, negative = inhibition) at 10uM [%] |
| --- | --- |
| O=C(CSc1nc2ccccc2c(=O)n1CC1CCCO1)Nc1ccccc1 (stereo not drawn) | -14.1 |
| CC(=O)NCCOc1ccc2oc3ccccc3c2c1 | -8.21 |
| CC(Cc1cccs1)NC(=O)CCCn1nnnc1CN1CCOCC1 (stereo not drawn) | 16 |
| CN(C)C=NC(=O)c1cc(C(=O)c2ccc(Cl)cc2Cl)c[nH]1 | 7.03 |
| CCCc1cc(=O)[nH]c(SCC(=O)OCc2ccccc2)n1 | 4.21 |
| Cc1nn(-c2ccccc2)nc1-c1nnc(-c2ccc(C(F)(F)F)cc2)o1 | 18.8 |
| CCN(CC(=O)NCc1cccs1)C(=O)c1cccc(S(=O)(=O)Nc2ccccc2Cl)c1 | -15.7 |
| CCCSc1nc(=O)n2cccc(C)c2n1 | -5.47 |
| CCOCc1nc(N)[nH]c(=O)c1Cc1ccc(OC(C)C)cc1 | 8.29 |
| COc1ccc(NC(=O)CS(=O)CC(=O)Nc2ccc(OC)c(OC)c2)cc1 (stereo not drawn) | 10.9 |
| N/C(=N\OC(=O)c1cnn(-c2ccccc2)c1C(F)(F)F)c1cc(C(F)(F)F)cc(C(F)(F)F)c1 | 14.6 |
| C/C(=C/C(=O)O)C(=O)Nc1cccc(C(F)(F)F)c1 | 3.16 |
| O=c1c2cc(NC(=S)NCc3ccccn3)ccc2nc2n1CCCCC2 | -6.42 |
| O=C(N/N=C/c1cc([N+](=O)[O-])ccc1O)c1ccncc1 | 1.76 |
| COc1cc(C(=S)N2CCOCC2)cc(OC)c1OS(=O)(=O)c1ccc(NC(C)=O)cc1 | -8.58 |
| CC(C)Cn1c(N)c(C(=O)COC(=O)Cc2cccs2)c(=O)n(C)c1=O | -51.7 |
| CC1(C)CC(=O)C2=C(C1)Nc1ccccc1NC2c1cccnc1 (stereo not drawn) | 3.26 |
| CCOc1cc(C(=O)OCC(=O)c2c[nH]c3ccccc23)ccc1OCC(=O)N1CCOCC1 | -11.6 |
| CCN1C(=O)[C@@H]2[C@@H](c3ccc(-c4ccc(Cl)c(Cl)c4)c(OC)c3)N3CCCC[C@@]3(C(=O)OC)[C@@H]2C1=O.O=C(O)C(F)(F)F | -11.4 |
| COc1ccc(NC(=O)CSc2nnc(Cc3cccn3C)n2-c2ccc(C)cc2)cc1OC | 8.89 |
| Fc1ccccc1Cc1ccc(Cl)nn1 | 0.887 |
| Cc1onc(-c2c(F)cccc2Cl)c1C(=O)c1ccc(F)cc1 | -2.58 |

| Structure (SMILES) | hERG current change (%, negative = inhibition) at 10uM [%] |
| --- | --- |
| COc1ccccc1C1CN=NC12CCCc1ccccc1C2=O (stereo not drawn) | -6.05 |
| CN(CCc1nc2ccc(Cl)cc2[nH]1)Cc1nc(CC2CC2)no1 | -50.8 |
| CCOC(=O)C1=C(C)Nc2ncnn2C1c1ccccc1F (stereo not drawn) | 2.22 |
| Clc1cccc(-c2nc(NCC3CCCO3)c3ccccc3n2)c1 (stereo not drawn) | 8.35 |
| Nc1cc(C(=O)O)ccc1Nc1ccc(F)c(F)c1 | 13.8 |
| Brc1cccc(CNCc2ccncc2)c1 | 0.127 |
| O=C(Cn1nc(-c2ccccc2)ccc1=O)Nc1ccc(N2CCN(C(=O)c3cccs3)CC2)cc1 | -18.5 |
| Cc1ccc(S(=O)(=O)Oc2ccccc2/C=N/NC(N)=S)cc1 | 15.1 |
| Cc1cc(S(=O)(=O)N2CCN=C2c2ccccc2)c(Cl)cc1Cl | 14.1 |
| CC1CCN(c2nc3c(c(=O)[nH]c(=O)n3C)n2Cc2ccccc2Cl)CC1 | 1.9 |
| COc1ccc(C(=O)O)cc1Nc1cc(C)nc2ncnn12 | 3.79 |
| O=C(COC(=O)c1ccccc1F)NC1CCCC1 | 23.7 |
| COc1ccc(OC)c(NC(=O)CSc2nn3c(=O)c(C)nnc3s2)c1 | 18.3 |
| Cc1c(C)n(C)c2ccc(C(=O)NCCCN3CCN(c4ccccc4F)CC3)cc12 | -54.2 |
| COC(=O)c1ccccc1N1CCS(=O)(=O)CC1 | 18.3 |
| CCCn1c(CCC(=O)O)ccc1-c1cccs1 | 3.57 |
| COc1ccc(Oc2cccc(Cl)c2CNC(=O)CSCC(=O)O)cc1 | 8.59 |
| CC(=O)[C@H]1[C@@H]2C(=O)N(c3cccc(Cl)c3)C(=O)[C@@H]2[C@H]2c3ccccc3C=CN21 | 13.9 |
| CCCCN(C(=O)c1ccc(C#N)cc1)c1c(N)n(CCC)c(=O)[nH]c1=O | 16.9 |
| CCc1ccc(-c2nc(CN3CCC(C(=O)NCCc4ccc(OC)c(OC)c4)CC3)c(C)o2)cc1 | -76.2 |
| COc1cc2ncnc(NCc3cccc(F)c3F)c2cc1OC | -7.4 |
| CCC(=O)N1N=C(c2ccc(C)o2)CC1c1ccc(Br)cc1 (stereo not drawn) | -23.4 |

| Structure (SMILES) | hERG current change (%, negative = inhibition) at 10uM [%] |
| --- | --- |
| O=C(OCc1nc2ccc(Cl)cc2n1CCO)c1ccc(O)cc1 | -34.5 |
| CC(=O)N1CCCc2cc(S(=O)(=O)N3CCCC(C(=O)NCc4ccccc4)C3)ccc21 (stereo not drawn) | 2.98 |
| Cc1cc(C)c(S(=O)(=O)N2CCCC2=O)c(C)c1N(C)S(C)(=O)=O | 4.44 |
| COc1ccc(C2=CC(=O)OC3(CCCC3)O2)cc1 | -15.6 |
| COc1cc(/C=C(\NC(=O)c2ccccc2)C(=O)Nc2nccs2)ccc1OC(C)=O | 16.2 |
| Cc1cc(C)c2ccc(C(=O)O)nc2c1O | -1.62 |
| CC(C)N1CCN(Cc2ccc(Sc3nncn3C)o2)CC1CCO (stereo not drawn) | 22.9 |
| COc1ccc(Nc2ccc(N3C(=O)CC(C)C3=O)cc2[N+](=O)[O-])cn1 (stereo not drawn) | 11.5 |
| S=c1[nH]nc(-c2cccnc2)n1/N=C/c1cccs1 | 11.7 |
| Cc1cccc(OCCn2cc(/C=N/NC(=O)c3ccncc3)c3ccccc32)c1 | -4.79 |
| Cc1[nH]c2ccccc2c1SCCNC(=O)c1ccc(S(=O)(=O)N2CCCC2)cc1 | -8.04 |
| CCN(CC)P(=O)(Nc1ccccc1Br)c1ccc(N(C)C)cc1NC(=O)c1ccco1 (stereo not drawn) | -6.45 |
| Cc1cc(NC(=O)c2cccs2)cc(-c2nc3ncccc3o2)c1O | 5.27 |
| Br.CCCCCN1C2=NCCN2c2ccccc21 | -71.4 |
| COC(=O)c1cc(-c2ccccc2)n(CCN)c1C.Cl | -3.56 |
| Cc1ccc(C2NC(=O)NC3=C2CCc2ccccc23)cc1 (stereo not drawn) | 2.59 |
| CC(=O)N1N=C(c2ccco2)CC1c1ccc(Cl)o1 (stereo not drawn) | 4.56 |
| Cn1c(=O)[nH]c(=O)c2c1nc(N1CCOCC1)n2CCSc1nc2ccccc2[nH]1 | 11.6 |
| CCOc1ccc(N(CC(=O)NC(C(C)C)C(C)C)S(=O)(=O)c2ccc(OC)c(OC)c2)cc1 | 38 |
| C/C(=N/NC(=O)CC1N=C(Cc2ccccc2)NNC1=O)c1cccnc1 (stereo not drawn) | 16.8 |
| COc1ccc(-c2nc(CSCC(=O)N3CCN(C(=O)c4ccco4)CC3)c(C)o2)cc1OC | -15.2 |
| COc1ccc(CNC(=O)c2cccc(-c3ccc(C)c4ccccc34)n2)cc1 | -24 |

| Structure (SMILES) | hERG current change (%, negative = inhibition) at 10uM [%] |
| --- | --- |
| COc1cccc(OC)c1OCCCCn1cnc2ccccc2c1=O.O=C(O)C(=O)O | -14.4 |
| Oc1c(Br)cc(C2N=C(c3ccccc3Cl)NO2)cc1Br (stereo not drawn) | -2.5 |
| CN(NC(=O)Nc1ccc(Cl)cc1)c1c(Cl)c(Cl)nn1C | 9.5 |
| CCOc1ccc(-n2c(C)nc3cc(C(=O)NCCN4CCOCC4)ccc32)cc1 | -11.6 |
| CCOC(=O)N1CCC2(O)CCCCC2C1c1ccc(F)cc1 (stereo not drawn) | 5.38 |
| CCOC(=O)CCc1c(C)c(C#N)c2[nH]c3ccccc3n2c1=O | -15.5 |
| CC(C#N)(NC(=O)CN1CCN(S(=O)(=O)c2ccc(Br)cc2Cl)CC1)C1CC1 (stereo not drawn) | -40.9 |
| Clc1ccccc1CN1CCC(Cc2ccccc2)CC1 | -12.1 |
| COCCCNC(=O)[C@H](Cc1c[nH]c2ccccc12)NC(=O)OCc1ccccc1 | -2.63 |
| CCO[C@H]1OC(C(=O)N2CCN(C)CC2)=C[C@@H](C)[C@@H]1CCCO | 7.79 |
| CC(C)Cn1c(SC(C)C(=O)NC2CC2)nnc1-c1ccccc1F (stereo not drawn) | -8.04 |
| O=c1[nH]c(=O)n(-c2ccc(F)cc2)c2c1C(C(F)(F)F)(C(F)(F)F)N=C(c1ccc(F)cc1)N2 | 3.05 |
| COc1ccc([N+](=O)[O-])cc1/C=N/NC(=O)CNC(=O)C(c1ccccc1)c1ccccc1 | -2.6 |
| Cc1nc2c(sc(=S)n2Cc2ccco2)c(=O)n1CC(=O)Nc1ccccc1 | -45.1 |
| Cc1ccc(N=Cc2ccc(N(C)C)cc2)cc1 | -2 |
| CCN(CC1CCCO1)C(=O)CCc1nnc(CCc2ccc(OC)cc2)o1 (stereo not drawn) | 10.9 |
| O=C(COc1ccc(S(=O)(=O)NC2CCCCC2)cc1)NCc1cccnc1 | 2.91 |
| Cc1cc2c(c(=O)n1C)C(Cc1ccccc1)C(C#N)=C(N)O2 (stereo not drawn) | -8.26 |
| CCN(CC)C(=O)c1ccc2nc3ccccc3nc2c1 | -6.37 |
| COc1cc(C(=O)NNC(=O)C2CC=CCC2C(=O)O)cc(OC)c1OC (stereo not drawn) | -3.13 |
| O=C(Oc1cccc(O)c1)C1CCCCC1 | 9.4 |
